Results taken from the antibiotic and cytotoxicity screens of Wong et al. (2023).
This is one part of the list.

Tests used:
HSkMC = human skeletal muscle cells; experiment: cytotoxicity call (relative viability < 0.9); details: 10 µM
S. aureus RN4220 = experiment: growth inhibition call (relative growth <= 0.2); details: 50 µM

Compound | cytotoxicity call (HSkMC) | growth inhibition call (S. aureus RN4220)
C[C@@H]1CCCCO[C@@H](CN(C)C(=O)c2ccncc2)[C@@H](C)CN([C@H](C)CO)C(=O)c2cc(NC(=O)C3CCCCC3)ccc2O1 | inactive | inactive
O=C(O)c1cc(N=Nc2ccc(S(=O)(=O)Nc3ccccn3)cc2)ccc1O | inactive | inactive
O=C(C[C@@H]1CC[C@H]2[C@@H](COC[C@@H](O)CN2C(=O)c2cnccn2)O1)NCc1ccc(Oc2ccccc2)cc1 | inactive | inactive
C[C@@H]1CN([C@H](C)CO)C(=O)c2cc(NC(=O)Nc3cccc4ccccc34)ccc2O[C@@H](C)CCCCO[C@@H]1CN(C)S(=O)(=O)c1cn(C)cn1 | inactive | inactive
C[C@H](CO)N1C[C@H](C)[C@@H](CN(C)Cc2ccc(C(=O)O)cc2)Oc2ccc(NC(=O)Cn3cnnn3)cc2CC1=O | inactive | inactive
C[C@@H]1CCCCO[C@@H](CN(C)Cc2ccccc2)[C@H](C)CN([C@H](C)CO)C(=O)c2cc(NC(=O)C3CCCCC3)ccc2O1 | inactive | inactive
C[C@H](CO)N1C[C@H](C)[C@@H](CN(C)C(=O)CCC(F)(F)F)OCCCC[C@H](C)Oc2ccc(NC(=O)c3ccccc3)cc2C1=O | inactive | inactive
COc1cc2nc(N(C)CCCNC(=O)C3CCCO3)nc(N)c2cc1OC.Cl (centres undefined) | inactive | inactive
Cc1cccc(=O)n1CCCCN | inactive | inactive
Cc1noc(C)c1NC(=O)N(C)C[C@H]1Oc2ncc(C#CCC(C)C)cc2C(=O)N([C@@H](C)CO)C[C@H]1C | inactive | inactive
CN(C)CCCCNC(=O)[C@@H]1C[C@@H]2C(=O)N[C@@H](CCCCN)C(=O)N2[C@@H]1c1ccc(O)cc1 | inactive | inactive
Cc1noc(C)c1NC(=O)Nc1ccc2c(c1)C(=O)N([C@H](C)CO)C[C@@H](C)[C@@H](CN(C)Cc1ccc(C(F)(F)F)cc1)OCCCC[C@@H](C)O2 | inactive | inactive
CC(=O)n1cc([C@@H]2C=C(C(=O)NCc3ccccc3)O[C@H](OCc3ccc(CO)cc3)C2)c2ccccc21 | inactive | inactive
Cc1ccc(S(=O)(=O)Nc2ccc3c(c2)C(=O)N([C@@H](C)CO)C[C@@H](C)[C@@H](CN(C)C(=O)C2CCCCC2)OCCCC[C@H](C)O3)cc1 | inactive | inactive
COc1ccc(S(=O)(=O)Nc2ccc3c(c2)C(=O)N([C@@H](C)CO)C[C@H](C)[C@@H](CN(C)Cc2ccc(C(F)(F)F)cc2)OCCCC[C@H](C)O3)cc1 | inactive | inactive
Cc1ccccc1-c1ccc2c(c1)O[C@@H](CN(C)C(=O)Nc1ccc(C(F)(F)F)cc1)[C@@H](C)CN([C@@H](C)CO)S2(=O)=O | active | inactive
C[C@@H]1CN([C@H](C)CO)C(=O)c2c(c3ccccc3n2C)-c2ccccc2CO[C@@H]1CN(C)Cc1cccc2c1OCCCO2 | inactive | inactive
C[C@H](CO)N1C[C@H](C)[C@@H](CN(C)C(=O)NC2CCCCC2)OCCCC[C@H](C)Oc2ccc(NC(=O)CCC(F)(F)F)cc2C1=O | inactive | inactive
CCN(CCCc1ccccc1)CCCc1ccccc1.O=C(O)CC(O)(CC(=O)O)C(=O)O | inactive | inactive

Compound | cytotoxicity call (HSkMC) | growth inhibition call (S. aureus RN4220)
COc1ccc(-n2nc(C(=O)NCC(=O)N3CCN(c4ccccc4)CC3)c3ccccc3c2=O)c(OC)c1 | inactive | inactive
CC(=O)Nc1nonc1N1CCCC1=O | inactive | inactive
CO[C@@H]1CN(C)C(=O)c2ccc(NC(=O)c3ccccc3)cc2OC[C@H](C)N(C(=O)CN(C)C)C[C@@H]1C | inactive | inactive
Cc1c(N2CCCC2)cc2c(c1-n1cccc1)C(C)(C)CC2(C)C | inactive | inactive
Cc1cc(C)n(-c2ccc(=O)n(CC(=O)N3CCN(S(=O)(=O)c4ccc(F)cc4)CC3)n2)n1 | inactive | inactive
C[C@@H]1CN([C@H](C)CO)C(=O)CCCn2cc(nn2)CO[C@H]1CN(C)Cc1cccc2c1OCCCO2 | inactive | inactive
C[C@@H]1CN([C@H](C)CO)C(=O)c2cc(NC(=O)Nc3ccc4c(c3)OCO4)ccc2O[C@@H](C)CCCCO[C@@H]1CN(C)S(=O)(=O)c1ccc(Cl)cc1 | inactive | inactive
O=c1[nH]c(=O)n([C@H]2C[C@H](O)[C@@H](CO)O2)cc1F | inactive | active
COC(=O)C1=C(C)NC(C)=C(C(=O)OC)C1c1ccccc1[N+](=O)[O-] | inactive | inactive
CO[C@@H]1CN(C)C(=O)c2ccc(NS(=O)(=O)c3cn(C)cn3)cc2OC[C@H](C)N(CCC(F)(F)F)C[C@@H]1C | inactive | inactive
COc1ccc(NC(=O)N(C)C[C@H]2Oc3c(NC(=O)c4cnccn4)cccc3C(=O)N([C@H](C)CO)C[C@H]2C)cc1 | inactive | inactive
COc1ccccc1[C@@H](NC(=O)C1CCN(Cc2ccc(Oc3ccccc3)cc2)CC1)c1ccccn1 | inactive | inactive
C[C@@H]1CN([C@@H](C)CO)C(=O)c2cc(NS(=O)(=O)c3ccc(Cl)cc3)ccc2O[C@@H](C)CCCCO[C@@H]1CN(C)C(=O)Nc1ccc(F)cc1 | inactive | inactive
C[C@@H](NC(=O)c1ccccc1)C(=O)NN | inactive | inactive
COc1ccc([Si](C)(C)[C@@H]2[C@@H](CC(=O)N3Cc4ccccc4C[C@H]3CO)O[C@]3(C(=O)N(Cc4cccc(N5CCC5=O)c4)c4ccccc43)[C@H]2C)cc1 | inactive | inactive
Cc1noc(C)c1NC(=O)N(C)C[C@@H]1Oc2ccc(NC(=O)Cn3cnnn3)cc2CC(=O)N([C@H](C)CO)C[C@@H]1C | inactive | inactive
COc1ccc(NC(=O)N(C)C[C@H]2OCCCC[C@H](C)Oc3ccc(NS(=O)(=O)c4cccs4)cc3C(=O)N([C@@H](C)CO)C[C@@H]2C)cc1 | inactive | inactive
COc1ccc(CN(C)C[C@H]2OCCCC[C@H](C)Oc3ccc(NS(=O)(=O)c4ccc(OC)cc4)cc3C(=O)N([C@H](C)CO)C[C@H]2C)cc1 | inactive | inactive
CC[C@@H](C)C(=O)O[C@H]1[C@@H]2CC3=C4CC(=O)O[C@@H](c5ccoc5)[C@]4(C)CC[C@@H]3[C@@](C)(C2=O)[C@@H](CC(=O)OC)C1(C)C | inactive | inactive

Compound | cytotoxicity call (HSkMC) | growth inhibition call (S. aureus RN4220)
O=C(NCCCN1CCOCC1)[C@H]1[C@H](CO)[C@H]2Cn3c(cccc3=O)[C@@H]1N2C(=O)NC1CCCC1 | inactive | inactive
C[C@H]1CCCCO[C@@H](CN(C)Cc2ccc(C(F)(F)F)cc2)[C@@H](C)CN([C@@H](C)CO)C(=O)c2cc(NS(=O)(=O)c3ccc(Cl)cc3)ccc2O1 | inactive | inactive
C[C@@H]1CN([C@H](C)CO)C(=O)c2cc(NS(=O)(=O)c3ccc(Cl)cc3)ccc2O[C@@H](C)CCCCO[C@@H]1CN(C)Cc1ccc(C(F)(F)F)cc1 | inactive | inactive
Cl.Cl.Fc1ccc(C(c2ccc(F)cc2)N2CCN(CC=Cc3ccccc3)CC2)cc1 | inactive | inactive
C[C@@H]1CN([C@H](C)CO)C(=O)c2cc(NS(=O)(=O)c3cn(C)cn3)ccc2O[C@H]1CN(C)CC1CCCCC1 | inactive | inactive
CC(C)NC(=O)N(C)C[C@H]1Oc2ccc(NC(=O)Cc3ccccc3)cc2CC(=O)N([C@@H](C)CO)C[C@@H]1C | inactive | inactive
COc1cccc(-c2ccc3c(c2)O[C@@H](CN(C)C(=O)C2CC2)[C@@H](C)CN([C@H](C)CO)S3(=O)=O)c1 | inactive | inactive
Cc1noc(C)c1NC(=O)N(C)C[C@@H]1Oc2ccc(NC(=O)CCN3CCOCC3)cc2C(=O)N([C@@H](C)CO)C[C@H]1C | inactive | inactive
C[C@@H]1CN([C@H](C)CO)C(=O)Cc2cc(NC(=O)Nc3cccc4ccccc34)ccc2O[C@@H]1CN(C)C(=O)NC1CCCCC1 | inactive | inactive
Cc1noc(C)c1NC(=O)Nc1ccc2c(c1)C(=O)N([C@H](C)CO)C[C@H](C)[C@@H](CN(C)C(=O)Nc1c(C)noc1C)OCCCC[C@H](C)O2 | inactive | inactive
COCCOC(=O)N1C(=O)[C@@]2(c3cc(C#CCC(C(=O)OC)C(=O)OC)ccc31)[C@H](c1ccc(OCCO)cc1)N1[C@H](c3ccccc3)[C@H](c3ccccc3)OC(=O)[C@H]1[C@@H]2C(=O)N1CCCCCCC1 | inactive | inactive
Cc1ccc(S(=O)(=O)Nc2ccc3c(c2)C(=O)N([C@H](C)CO)C[C@H](C)[C@@H](CN(C)C(=O)Cc2ccccc2)OCCCC[C@H](C)O3)cc1 | inactive | inactive
C[C@@H]1CN([C@@H](C)CO)C(=O)c2cc(NS(=O)(=O)c3ccc(Cl)cc3)ccc2O[C@@H](C)CCCCO[C@H]1CN(C)Cc1ccc(C(=O)O)cc1 | inactive | inactive
C[C@H](CO)N1C[C@H](C)[C@H](CN(C)C(=O)NC2CCCCC2)OCCCC[C@H](C)Oc2ccc(NC(=O)Nc3ccccc3)cc2C1=O | inactive | inactive
C[C@H]1CCCCO[C@@H](CN(C)C(=O)Nc2ccc3c(c2)OCO3)[C@@H](C)CN([C@@H](C)CO)C(=O)c2cc(NC(=O)C3CCCCC3)ccc2O1 | inactive | inactive
COc1ccc(CN(C)C[C@H]2OCCCC[C@@H](C)Oc3ccc(NS(=O)(=O)c4ccc(Cl)cc4)cc3C(=O)N([C@H](C)CO)C[C@@H]2C)cc1 | inactive | inactive
C[C@@H]1CCCCO[C@H](CN(C)S(=O)(=O)c2cn(C)cn2)[C@@H](C)CN([C@H](C)CO)C(=O)c2cc(N(C)C)ccc2O1 | inactive | inactive
C[C@@H]1CN([C@H](C)CO)C(=O)c2cccc(NS(=O)(=O)c3cccs3)c2O[C@@H]1CN(C)S(=O)(=O)c1cccs1 | inactive | inactive
COc1ccc(CN(C)C[C@@H]2OCCCC[C@H](C)Oc3ccc(NC(=O)Nc4ccc(F)cc4)cc3C(=O)N([C@@H](C)CO)C[C@H]2C)cc1 | inactive | inactive
